Values joined by “and” are separate entries in the source; they are usually repeats but may differ in a detail not shown here. Equal entries are not always repeated. Screen size: about 16,000 compounds; about 40 (0.2%) were called active. Roughly 1% stayed inconclusive and do not appear here. Calls follow the shape of the dose curve; as a rule, active = well fitted activation curve with a large enough effect; inconclusive = small, poorly fitted or top-dose-only effect, or another doubt; inactive = no such curve, though single readings can be large or run the other way. Some of the results follow.
What follows are compounds tested against Rap guanine nucleotide exchange factor 4 (Homo sapiens) (UniProt Q8WZA2) (assay: Validation qHTS for agonist of cAMP-regulated guanine nucleotide exchange factor 4 (EPAC2)). Settings: EPAC2 Rap1B BODIPY-GDP exchange, fluorescence; activation: hits give high values.
UniProt Q8WZA2, sequence (Q8WZA2 whole entry, looked up): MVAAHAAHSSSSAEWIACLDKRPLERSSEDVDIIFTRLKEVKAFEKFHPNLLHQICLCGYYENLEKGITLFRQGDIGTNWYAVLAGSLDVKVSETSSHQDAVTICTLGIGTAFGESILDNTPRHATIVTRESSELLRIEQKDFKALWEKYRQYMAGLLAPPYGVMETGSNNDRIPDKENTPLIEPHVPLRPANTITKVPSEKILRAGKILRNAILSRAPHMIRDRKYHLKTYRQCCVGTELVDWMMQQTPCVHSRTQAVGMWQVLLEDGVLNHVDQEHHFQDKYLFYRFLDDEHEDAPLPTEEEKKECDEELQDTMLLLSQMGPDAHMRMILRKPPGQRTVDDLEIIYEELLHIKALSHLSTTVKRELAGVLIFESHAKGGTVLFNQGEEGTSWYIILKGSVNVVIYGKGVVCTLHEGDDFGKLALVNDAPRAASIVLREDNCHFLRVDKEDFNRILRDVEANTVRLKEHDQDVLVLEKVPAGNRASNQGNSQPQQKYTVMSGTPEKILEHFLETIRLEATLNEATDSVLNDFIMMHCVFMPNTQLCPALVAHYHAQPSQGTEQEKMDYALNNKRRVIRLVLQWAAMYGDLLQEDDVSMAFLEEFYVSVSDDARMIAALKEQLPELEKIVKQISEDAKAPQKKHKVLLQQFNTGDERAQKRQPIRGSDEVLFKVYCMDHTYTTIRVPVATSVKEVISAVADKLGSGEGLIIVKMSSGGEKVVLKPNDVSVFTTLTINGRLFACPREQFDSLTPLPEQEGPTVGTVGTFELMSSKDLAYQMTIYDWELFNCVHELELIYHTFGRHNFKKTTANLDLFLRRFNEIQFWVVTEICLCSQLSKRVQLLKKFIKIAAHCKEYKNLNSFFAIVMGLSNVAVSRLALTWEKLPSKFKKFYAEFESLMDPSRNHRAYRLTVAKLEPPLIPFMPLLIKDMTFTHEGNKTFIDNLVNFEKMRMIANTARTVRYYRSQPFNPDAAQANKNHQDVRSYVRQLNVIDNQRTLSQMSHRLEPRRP
Summary of the method: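 Fluorescent exchange assay: 100 nM EPAC2 with 250 nM RAP1B-BODIPY-GDP and 50 uM GDP; compound added, 5 min at room temperature, then read (ex 480/em 540 nm) every 5 min for 30 min. Normalized to 6.5 mM cAMP agonist control.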
% is scaled to controls: 0 for no effect and ±100 for the full control effect.
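Also: exchange makes BODIPY-GDP fluorescence drop when released from Rap1B; series mostly up to about 150 µM.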

| Structure (SMILES) | activation |
| --- | --- |
| CC1=CC(=O)C2=C(C)C[C@H](O)[C@H]3[C@H](C)C(=O)O[C@@H]3C12 (stereo partly drawn) | inactive: -0.705% |
| CC(C)NC(C)C | inactive: -19.1% |
| COC(=O)CN1CN(c2ccccc2)C2(CCN(Cc3ccc4ccccc4c3)CC2)C1=O | inactive: 0.277% |
| CC(C)(O)C1C2OC(=O)C1[C@]1(O)CC3O[C@@]34C(=O)OC2[C@@]14C (stereo partly drawn) | inactive: -3.36% |
| C=C(C)[C@H]1O[C@H]2CC[C@@]3(C)[C@@](O)(CC[C@H]4[C@@H]5OC(C)(C)[C@H]6C[C@@H]7C(=C)Cc8c(Cl)cc9[nH]c(c5c9c8[C@@]76O)[C@@]43C)[C@]23O[C@@H]3[C@H]1O | inactive: -11.5% |
| COc1cc2c(cc1OC)C(C)NCC2 (stereo not drawn) | inactive: -13.7% and inactive: -3.89% |
| COc1ccccc1CN1CC[C@@]2(CCCN(C(=O)Oc3ccccc3)C2)C1 | inactive: -5.3% |
| NC(=O)CN1CCCC1=O | inactive: -15.6% and inactive: 3.64% and inactive: -34.4% |
| CC(=O)NBr | inactive: -19.7% |
| C=CCN1CCC2(C)c3cc(O)ccc3CC1C2C (stereo not drawn) | inactive: 9.6% |
| CC(=O)Oc1c2c(c(CC=C(C)C)c3c1C(=O)C1=CC4CC5C(C)(C)OC(C/C=C(\C)C(=O)O)(C4=O)[C@]15O3)OC(C)(CCC=C(C)C)C=C2 (stereo partly drawn) | inactive: -49.1% |
| CCC1(c2cnc[nH]2)Cc2ccccc2C1 | inactive: 7.66% and inactive: -12.6% |
| O=C(O)COc1ccccc1 | inactive: 12.5% |
| CC1=C2CC3C(CC=C4C[C@@H](O)CC[C@@]43C)[C@@H]2CC[C@]12O[C@@H]1C[C@H](C)CN[C@H]1[C@H]2C (stereo partly drawn) | inactive: 6.83% |
| CN(C)c1ccc(C=C2C(=O)NC(=O)NC2=O)cc1 | inactive: -26.8% |
| Clc1ccc(CCC(Cn2ccnc2)Sc2c(Cl)cccc2Cl)cc1 (stereo not drawn) | inactive: -11.4% |
| ClCCN(CCCl)c1ccc(C=Nc2ccc(/C=C/c3ccncc3)cc2)cc1 | inactive: -15% |
| CCON=O | inactive: -6.72% |
| CC1CC(C)C(=O)[C@H](C(O)CC2CC(=O)NC(=O)C2)C1 (stereo partly drawn) | inactive: -10.7% |
| CC(C)NP(=O)(NC(C)C)OP(=O)(NC(C)C)NC(C)C | inactive: 2.8% |
| C[N+](C)(C)CCOC(=O)C(O)(c1ccccc1)c1ccccc1 | inactive: -6.81% |

| Structure (SMILES) | activation |
| --- | --- |
| C[C@@H]1O[C@H](O[C@@H]2C[C@@H](O)[C@]3(CO)[C@H]4[C@H](O)C[C@]5(C)[C@@H](C6=CC(=O)OC6)CC[C@@]5(O)[C@@H]4CC[C@]3(O)C2)[C@@H](O)[C@H](O)[C@H]1O | inactive: -10.7% |
| Cc1c2ccncc2c(C)c2c1[nH]c1ccccc12 | inactive: -7.25% and inactive: -0.629% |
| CC(=O)OCC(=O)[C@H]1CC[C@H]2[C@@H]3CC[C@H]4C[C@H](O)CC[C@]4(C)[C@H]3C(=O)C[C@]12C | inactive: -3.62% |
| CC(C)(O)[C@@H]1C2OC(=O)[C@@H]1[C@]1(O)C[C@H]3O[C@]34C(=O)O[C@H]2[C@]14C (tested in a mixture with another compound) | inactive: -28.7% |
| O=S1(=O)N(CCN2CC=C(c3c[nH]c4cc(F)ccc34)CC2)c2cccc3c2N1CCC3 | inactive: -48.4% |
| NC[C@H](CS(=O)(=O)O)c1ccc(Cl)cc1 | inactive: -6.43% |
| N#CC(C#N)=Cc1ccc([N+](=O)[O-])c(O)c1 | inactive: -6.77% and inactive: 4.2% |
| O=C(CCCN1CCC2(CC1)C(=O)N(Cc1cccc(F)c1)CN2c1ccccc1)c1ccc(F)cc1 | inactive: 3.2% and inactive: 11.6% |
| c1ccc2c(c1)[nH]c1cnccc12 | inactive: -11.9% |
| c1cc2c(c(NC3=NCCN3)c1)CCCC2 | inactive: -20.4% |
| CN1CCCC2(CCN(C(=O)c3ccncc3)CC2)C1 | inactive: -6.17% |
| CS(=O)(=O)N1CCC2(CC1)CN(Cc1ccncc1)C2 | inactive: -1.96% |
| NC(=NCCCC(N)C(=O)O)N[N+](=O)[O-] (stereo not drawn) | inactive: -8.68% |
| CNC(=O)Oc1ccccc1C(=O)Nc1ccccc1 | inactive: -1.5% |
| C=CCC1([C@H](C)CCC)C(=O)NC(=O)NC1=O | inactive: -11.9% |
| O=[N+]([O-])c1ccc(O)c([N+](=O)[O-])c1 | inactive: -22.9% |
| COC1=C[C@]23CCCN2CCc2cc4c(cc2[C@@H]3[C@@H]1O)OCO4 | inactive: -19.1% |
| CN1CCCC2(CCN(C(=O)c3csnn3)CC2)C1 | inactive: -21.6% |
| O[C@@H](Cc1ccncc1)C(Cl)(Cl)Cl | inactive: -13.6% |
| CC(=O)OC1CC2C(C)(C)C(=O)C=C[C@]2(C)C2CC[C@]3(C)C(=CC(=O)OC3c3ccoc3)[C@]12C (stereo partly drawn) | inactive: 8.24% |
| CN1CCN(c2ccc3ccccc3n2)CC1 | inactive: -12.5% and inactive: 10.7% |

| Structure (SMILES) | activation |
| --- | --- |
| CCn1cnc2c(Nc3cccc(Cl)c3)nc(N[C@@H]3CCCC[C@@H]3N)nc21 | inactive: -9.27% |
| CN1[C@@H]2CC[C@H]1CC(OC(c1ccc(F)cc1)c1ccc(F)cc1)C2 (stereo partly drawn) | inactive: 5.03% |
| C=CC1CN2CCC1CC2C(O)c1ccnc2ccccc12 (stereo not drawn) | inactive: -7.61% and inactive: 5.08% |
| C[C@H]1CCCC=CC2C[C@H](O)C[C@@H]2[C@H](O)C=CC(=O)O1 (stereo partly drawn) | inactive: -17% |
| CCC(C)C(=O)OC1C[C@@]2(C)C(c3ccoc3)OC(=O)CC23OC2(C)OC34C(OC(=O)C(C)C)[C@]3(O)C(OC(=O)C5(C)OC5C)[C@]5(C)CC3(O)[C@](C)(C5CC(=O)OC)C14O2 (stereo partly drawn) | inactive: -31.7% |
| C=C1[C@@H](O)C2C=CC[C@H](C)C(=O)[C@@](C)(O)C=C[C@@H](OC(C)=O)[C@@]23C(=O)N[C@H](Cc2ccccc2)[C@@H]3[C@@H]1C (stereo partly drawn) | inactive: -11.4% |
| CN[C@@H](Cc1c[nH]c2ccccc12)C(=O)O | inactive: 1.62% |
| CCOP(=O)(NC(C)C)Oc1ccc(SC)c(C)c1 (stereo not drawn) | inactive: -15.6% |
| CC1OC(C)OC(C)O1 (stereo not drawn) | inactive: 5.62% and inactive: 6.55% |
| S=C(SSC(=S)N1CCCCC1)N1CCCCC1 | inactive: -5.28% |
| CCCCCCCCCC[N+](C)(C)CCCCCCCCCC | inactive: -28.8% |
| Nc1ccc([As](=O)(O)O)cc1 | inactive: 2.63% |
| C[C@]12CC[C@H]3[C@@H](CCC4=C(O)C(=O)CC[C@@H]43)[C@@H]1CC[C@@H]2OC(=O)CCC1CCCC1 | inactive: -0.751% |
| NCCc1c[nH]c2ccc(C(N)=O)cc12 | inactive: -12.8% and inactive: 7.53% and inactive: -7.14% |
| COP(=S)(OC)Oc1cc(Cl)c(Cl)cc1Cl | inactive: -9.54% and inactive: -6.58% |
| COc1cc2occc2c2oc(=O)ccc12 | inactive: -2.12% and inactive: -20% |
| C[C@@]12CCC3C(CCC4=CC(=O)CC[C@]43C)C1CCC2O (stereo partly drawn) | inactive: -23.8% |
| CC1=C2C3OC(=O)C(C)C3CC[C@@]2(C)C=CC1=O (stereo partly drawn) | inactive: -4.6% |
| Oc1ccc2c3c1O[C@H]1c4oc5ccccc5c4C[C@]4(O)[C@H](C2)N(CC2CC2)CC[C@@]314 | inactive: -1.57% |
| CN1C(=O)C(O)N=C(c2ccccc2)c2cc(Cl)ccc21 (stereo not drawn) | inactive: -2.33% |
| O=C(NC1CCCCC1)[C@@H]1CC=C[C@@H]2CCN(Cc3ccccc3)C(=O)[C@@H]21 | inactive: -18% |

| Structure (SMILES) | activation |
| --- | --- |
| O=S(=O)(O)C(F)(F)C(F)(F)C(F)(F)C(F)(F)F | inactive: 4.13% |
| COc1ccc(C2Oc3c(I)c(OC)cc(OC)c3CC2O)cc1OC (stereo not drawn) | inactive: -2.98% |
| Cc1ccc(C(=O)CN2CCOCC2)cc1 | inactive: -4.85% |
| CCOC(=O)[C@]12Cc3cc(OC)c(OC)cc3[C@H]1N(Cc1ccccc1)C(=O)c1ccccc12 | inactive: -18% |
| CCCCCCCCC(=O)NCc1ccc(O)c(OC)c1 | inactive: -21.2% and inactive: -47.5% |
| COc1ccc2c(C(=O)c3ccc(Cl)cc3)c(C)n(CC(=O)O)c2c1 | inactive: -6.61% |
| COC(COC(N)=O)C1=C(N2CC2)C(=O)C(C)=C(N2CC2)C1=O (stereo not drawn) | inactive: -2.06% |
| NC(C(=O)O)c1cc(=O)[nH]o1 (stereo not drawn) | inactive: 3.53% and inactive: -4.14% |
| CCC(C(N)=O)N1CCCC1=O (stereo not drawn) | inactive: -18.4% |
| CCCCCCCCCCCC[N+](C)(C)CCOc1ccccc1 | inactive: -32.7% |
| C[N+]1([O-])[C@@H]2CC[C@H]1CC(OC(=O)C(CO)c1ccccc1)C2 (stereo partly drawn) | inactive: 13.3% and inactive: 5.79% |
| CC(C)(c1ccc(OC[C@@H]2CO2)cc1)c1ccc(OC[C@H]2CO2)cc1 | inactive: -34.2% |
| Nc1ccc(CCN2CCN(c3cccc(C(F)(F)F)c3)CC2)cc1 | inactive: 2.03% and inactive: -11.8% |
| COc1cccc2c1cc([N+](=O)[O-])c1c(C(=O)O)cc3c(c12)OCO3 | inactive: -5.26% and inactive: -7.82% and inactive: 0.442% |
| CC(C)NCC(O)c1ccccc1Cl (stereo not drawn) | inactive: 20.7% |
| CC(=O)NCCc1c[nH]c2ccccc12 | inactive: -0.276% [middle of 4 runs] |
| CC[N+](C)(CC)CCOC(=O)C(O)(c1ccccc1)c1ccccc1 | inactive: -4.14% |
| O=C(Nc1ccccc1-c1ccc(Cl)cc1)c1cccnc1Cl | inactive: -22.5% |
| COc1ccc(/C=C/c2cc(O)cc(O)c2)cc1 | inactive: -15.2% |
| O[C@H]1CCCC[C@H]1N1CCC(c2ccccc2)CC1 | inactive: -4.75% |
